Reference: the supplement of paper PMC11369174, “Proteome-scale characterisation of motif-based interactome rewiring by disease mutations” (Molecular Systems Biology, 2024)
The list shows a part of the results. Read counts after selection give these values, which scatter widely.

Key:
Experiment in all cases: mean normalised NGS count of phage-displayed peptide after selection on bait (% of reads); baits are purified protein domains named by gene / domain / UniProt id / residues; peptides come from disordered regions of human proteins; higher = stronger enrichment / binding
[1] = molecular target: PDCD6IP_Alix-V-domain__Q8WUM4_360_702
[2] = molecular target: T1, PEX14_Pex14__O75381_16_84; conditions: replicate selections in which the peptide was seen: 2
T1 chain: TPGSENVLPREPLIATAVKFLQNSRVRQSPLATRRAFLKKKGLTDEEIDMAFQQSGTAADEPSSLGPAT

[3] = molecular target: PDCD6IP_Bro__Q8WUM4_1_359
OXSR1___O95747_434_527 = molecular target: OXSR1___O95747_434_527
Chain of OXSR1___O95747_434_527 (chain, as listed by the source): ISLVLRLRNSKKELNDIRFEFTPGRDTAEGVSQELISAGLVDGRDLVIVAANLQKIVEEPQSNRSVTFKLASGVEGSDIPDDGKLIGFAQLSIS

[4] = replicate selections in which the peptide was seen: 5
[5] = replicate selections in which the peptide was seen: 3
[6] = replicate selections in which the peptide was seen: 2
[7] = replicate selections in which the peptide was seen: 6

Which “mean normalised NGS count” value [1, 4] does the source give for VRSELVRHSSLLALLW [RDH12 233-248 wt] here?
Its value is 0.189.

TVGLAQQWDQLDQLGM [SPTAN1 2287-2302 wt] was tested. Which “mean normalised NGS count” value [2] did it give?
The value was 0.00546.

How did the “mean normalised NGS count” value [3, 5] turn out when ADAFWWGLITLTTIGY [KCNQ2 265-280 mut O43526.L268F] was run?
The value was 20.4.

REKLYPPLPPRWLEVI [TTN 15005-15020 mut Q8WZ42.S15012L] was tested. Which “mean normalised NGS count” value [1, 4] did it give?
The value was 53.5.

For KEAALYPHLPPEADLR [SQSTM1 378-393 mut Q13501.P392L], which “mean normalised NGS count” value [1, 4] is on record?
The value was 0.7.

With ALYDQLLKQVEALKME [APC 4-19 mut P25054.S5L] as the binder, how does the “mean normalised NGS count” value [1, 5] read?
Its value is 30.2.

How did the “mean normalised NGS count” value [1, 4] turn out when YPQLTAGYQGLLAIVK [FAM222A 92-107 mut Q5U5X8.H95L] was run?
The value was 3.1.

For VYPYLSQFQQDKQQLV [BRCA2 2151-2166 mut P51587.S2152Y], which “mean normalised NGS count” value [1, 4] is on record?
Its value is 0.658.

With QQRAAPGEPGWMGRLW [CACNA1H 764-779 wt] as the binder, how does the “mean normalised NGS count” value [2] read?
Its value is 0.00449.

With REPGKLQFEVQKVDRP [TTN 1952-1967 mut Q8WZ42.H1952R] as the binder, how does the “mean normalised NGS count” value (OXSR1___O95747_434_527; [4]) read?
Its value is 1.52.

Which “mean normalised NGS count” value [3, 6] does the source give for ADALWWGLMTLTTIGY [KCNQ2 265-280 mut O43526.I273M] here?
Its value is 6.14.

With LEGKQFTVTKLKENTE [TTN 25985-26000 mut Q8WZ42.Q25986E] as the binder, how does the “mean normalised NGS count” value (OXSR1___O95747_434_527; [7]) read?
Its value is 4.67.

Which “mean normalised NGS count” value (OXSR1___O95747_434_527; [7]) does the source give for IHSQEQGRFHIENTDD [TTN 34296-34311 wt] here?
The value was 12.6.

How did the “mean normalised NGS count” value (OXSR1___O95747_434_527; [5]) turn out when EYRFHVLAANAGGPGE [TTN 31029-31044 mut Q8WZ42.R31033H] was run?
The value was 0.524.

Which “mean normalised NGS count” value (OXSR1___O95747_434_527; [5]) does the source give for IHSQEQGRFHTENTDD [TTN 34296-34311 mut Q8WZ42.I34306T] here?
Its value is 0.0373.

How did the “mean normalised NGS count” value [2] turn out when SYWADIFVQNLVPDWR [SLC12A3 319-334 mut P55017.R321W] was run?
Its value is 0.124.

EVPKLYPEFPPKYMAE [SPART 109-124 mut Q8N0X7.D121Y] was tested. Which “mean normalised NGS count” value [1, 4] did it give?
The value was 1.54.

For QEQGRFHIENTDDLTT [TTN 34299-34314 wt], which “mean normalised NGS count” value (OXSR1___O95747_434_527; [4]) is on record?
The value was 30.1.

With EVPKLYPEFPPKDMAE [SPART 109-124 wt] as the binder, how does the “mean normalised NGS count” value [1, 6] read?
The value was 0.0814.

Which “mean normalised NGS count” value [3, 6] does the source give for MAQMATTAAGVAVGSA [CHCHD10 56-71 wt] here?
The value was 0.0449.

Which “mean normalised NGS count” value (OXSR1___O95747_434_527; replicate selections in which the peptide was seen: 4) does the source give for RFTVKVTGEPKPEITW [NEXN 600-615 wt] here?
The value was 0.213.

With PDWMGRLWVTFSGKLR [CACNA1H 772-787 mut O95180.G773D] as the binder, how does the “mean normalised NGS count” value [2] read?
Its value is 0.0717.

Which “mean normalised NGS count” value (OXSR1___O95747_434_527; [7]) does the source give for LQGKQFTVTKLKENTE [TTN 25985-26000 wt] here?
Its value is 4.89.

Which “mean normalised NGS count” value [2] does the source give for KWVAYDYQTYFTNAWA [SCN1A 1270-1285 mut P35498.G1275D] here?
Its value is 0.0629.

Which “mean normalised NGS count” value [2] does the source give for PSEDKASKVFFSYRAD [SLC12A3 308-323 mut P55017.G316V] here?
The value was 3.77.

With LIEFRVLAGEWIETMW [SCN1A 942-957 mut P35498.V944E] as the binder, how does the “mean normalised NGS count” value [2] read?
The value was 0.472.

Which “mean normalised NGS count” value [3, 6] does the source give for LAEVFQALEQLGHQAF [RECQL4 466-481 mut O94761.P466L] here?
The value was 0.0904.

With MAQMATTAAGVAVGSA [CHCHD2 56-71 wt] as the binder, how does the “mean normalised NGS count” value [3, 6] read?
Its value is 0.0449.

With MAQMATTAAGVAVGSA [CHCHD2P9 56-71 wt] as the binder, how does the “mean normalised NGS count” value [3, 6] read?
Its value is 0.0449.
